IC50 is the fitted dose that halves viability relative to control wells, and lower means more sensitive; a fit beyond the top or the lowest dose is shown as a bound at that dose. For AUC the same curve is integrated over the 256-fold range of doses and scaled to a fraction; it is 1 without any effect and falls as sensitivity rises. For some assays here: The top dose, if marked as inferred, is not printed in the source and was worked back from the curve model. For some assays here: Where an entry number is given, a second screen of the drug exists; the two often differ.
Legend:
Experiment in all cases: Viability of human cancer cell lines after 72 h of drug (GDSC screen)
[1] = compound: CC(C)(C)c1cc(NC(=O)Nc2ccc(-c3cn4c(n3)sc3cc(OCCN5CCOCC5)ccc34)cc2)no1 [AC220]; conditions: top dose 1.024 µM; top dose inferred
Procedure: (§1)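 Human cancer cell lines in 384-well plates, medium with 10% serum, drug for 72 h over a 256-fold dose range (nine 2-fold or five 4-fold steps up to the top dose). Adherent lines were fixed and stained with the nucleic acid dye Syto60, suspension lines read with resazurin; signal relative to control wells, capped at 0 and 100%. One two-parameter sigmoid per drug and line, fitted in a mixed model over all curves with the slope shared within a line.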

[2] = compound: COc1cc(F)c(F)c(Nc2ccc(I)cc2F)c1NS(=O)(=O)C1(C[C@H](O)CO)CC1 [RDEA119]; conditions: top dose 5 µM, top dose inferred
Procedure: as §1

[3] = compound: Fc1cc(-c2ccnc(Nc3ccc(-n4cnc(N5CCOCC5)n4)cc3)n2)cc(N2CCOCC2)c1 [JNK-9L]; conditions: top dose 5.12 µM; top dose inferred
Procedure: as §1

[4] = compound: NCC(=O)Nc1ccc(-n2nc(C(F)(F)F)cc2-c2ccc3c(ccc4ccccc43)c2)cc1 [OSU-03012]; conditions: top dose 16 µM; top dose inferred
Procedure: as §1

[5] = compound: O=c1[nH]cc(F)c(=O)[nH]1 [5-Fluorouracil]; conditions: top dose 32 µM; top dose inferred
Procedure: as §1

[6] = compound: OC[C@H](Cc1ccccc1)Nc1nc(Oc2ccc3c(c2)CCC3)nc2c1ncn2Cc1ccc(-c2ccccc2)cc1 [QS11]; conditions: top dose 10.24 µM
Procedure: as §1

[7] = compound: C#Cc1cccc(Nc2ncnc3cc(OC)c(OCCCCCCC(=O)NO)cc23)c1 [CUDC-101]; conditions: top dose 5.12 µM; top dose inferred
Procedure: as §1

Row | Cell Line | AUC [1] | IC50 [1] [nM] | AUC ([2]; screen: GDSC drug entry 1014) | IC50 ([2]; screen: GDSC drug entry 1014) [nM] | AUC ([2]; screen: GDSC drug entry 1526) | IC50 ([2]; screen: GDSC drug entry 1526) [nM] | AUC [3] | IC50 [3] [nM] | AUC [4] | IC50 [4] [µM] | AUC [5] | IC50 [5] [µM] | AUC [6] | IC50 [6] [µM] | AUC [7] | IC50 [7] [nM]
1 | NB14 (neuroblastoma, adherent) | 0.989 | > 1020 | 0.884 | 4850 | 0.942 | > 5000 | 0.537 | 401 | 0.584 | 1.67 | 0.987 | > 32 | 0.949 | > 10.2 |  | 
2 | NCI-H69 (small cell lung carcinoma, suspension) | 0.912 | > 1020 | 0.986 | > 5000 | 0.982 | > 5000 | 0.714 | 1390 | 0.935 | > 16 | 0.986 | > 32 | 0.941 | > 10.2 |  | 
3 | NCI-H196 (small cell lung carcinoma, adherent) | 0.953 | > 1020 |  |  |  |  | 0.636 | 777 | 0.879 | > 16 | 0.972 | > 32 | 0.984 | > 10.2 | 0.434 | 209
4 | NCI-H748 (small cell lung carcinoma, suspension) | 0.947 | > 1020 |  |  |  |  | 0.684 | 1220 | 0.859 | > 16 | 0.865 | > 32 | 0.917 | > 10.2 | 0.358 | 115
5 | NCI-H1734 (lung adenocarcinoma, adherent) | 0.984 | > 1020 |  |  |  |  | 0.569 | 503 | 0.801 | 8.74 | 0.873 | > 32 | 0.941 | > 10.2 | 0.548 | 437
6 | NCI-H2171 (small cell lung carcinoma, suspension) | 0.992 | > 1020 |  |  |  |  | 0.694 | 1030 | 0.863 | 11 | 0.968 | > 32 | 0.957 | > 10.2 | 0.399 | 176
7 | NOMO-1 (acute myeloid leukaemia, suspension) |  |  | 0.242 | 49.9 | 0.244 | 50.9 | 0.535 | 403 | 0.654 | 2.85 | 0.376 | 0.864 | 0.923 | > 10.2 | 0.465 | 254
8 | OCI-AML2 (acute myeloid leukaemia, suspension) |  |  | 0.032 | < 19.5 | 0.059 | < 19.5 | 0.587 | 521 | 0.612 | 1.87 | 0.267 | 0.537 | 0.859 | 5.25 | 0.328 | 121
9 | OCI-AML3 (acute myeloid leukaemia, suspension) |  |  | 0.352 | 130 | 0.245 | 65.8 | 0.63 | 690 | 0.814 | 7.22 | 0.341 | 0.777 | 0.887 | 8.56 | 0.379 | 156
10 | OCI-AML5 (acute myeloid leukaemia, suspension) |  |  | 0.564 | 460 | 0.779 | 1860 | 0.519 | 358 | 0.806 | 7.32 | 0.407 | 1.14 | 0.791 | 4.17 | 0.212 | 50.3
11 | ONS-76 (medulloblastoma, adherent) | 0.984 | > 1020 | 0.586 | 548 | 0.438 | 208 | 0.524 | 374 | 0.643 | 2.57 | 0.852 | 27.9 | 0.854 | 9.05 |  | 
12 | PF-382 (T-cell lymphoblastic leukaemia, suspension) |  |  | 0.988 | > 5000 | 0.99 | > 5000 | 0.563 | 464 | 0.622 | 2.07 | 0.803 | 13.6 | 0.911 | > 10.2 | 0.265 | 75.9
13 | PL-21 (acute myeloid leukaemia, suspension) |  |  |  |  | 0.797 | 2820 | 0.443 | 217 | 0.716 | 4.59 | 0.869 | > 32 | 0.922 | > 10.2 | 0.54 | 419
14 | REH (B-cell leukaemia, suspension) |  |  | 0.977 | > 5000 | 0.978 | > 5000 | 0.637 | 754 | 0.552 | 1.38 | 0.502 | 2.02 | 0.898 | > 10.2 | 0.315 | 99.7
15 | RS4-11 (leukaemia, suspension) |  |  | 0.978 | > 5000 | 0.988 | > 5000 | 0.522 | 365 | 0.728 | 4.15 | 0.497 | 1.97 | 0.862 | 7.54 | 0.249 | 65.8
16 | SF539 (glioma, adherent) | 0.979 | > 1020 | 0.783 | 1890 | 0.863 | 3610 | 0.628 | 695 | 0.823 | 8.23 | 0.813 | 15.1 | 0.941 | > 10.2 |  | 
17 | SNG-M (endometrium, adherent) | 0.983 | > 1020 | 0.976 | > 5000 | 0.767 | 1820 | 0.509 | 338 | 0.664 | 2.82 | 0.898 | > 32 | 0.814 | 5.44 |  | 
18 | SUP-B15 (lymphoblastic leukaemia, suspension) |  |  | 0.777 | 1920 |  |  | 0.559 | 462 | 0.72 | 4.06 | 0.47 | 1.66 | 0.811 | 5.17 | 0.329 | 109
19 | YKG-1 (glioma, adherent) | 0.984 | > 1020 | 0.659 | 873 | 0.872 | 4880 | 0.519 | 361 | 0.607 | 1.98 | 0.918 | > 32 | 0.843 | 7.38 |  | 

Reference: the supplement of paper PMC4967469
